T1: RBFOX1 RRM RbFoxmut (Fox-RRM*) (Homo sapiens, UniProt Q9NWB1 109-208, R118D;E147R;N151S;E152T)
T1 sequence: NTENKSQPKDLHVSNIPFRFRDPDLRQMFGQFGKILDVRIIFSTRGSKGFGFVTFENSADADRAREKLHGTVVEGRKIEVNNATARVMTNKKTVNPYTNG

B1: AGACGAC (DNA:RNA)
RNA: GGGAGACCGGAAUUCAGAUUGUCCAGACGACUUAAAUCCCGUCGUAGCCACCA
DNA 1: CAATCTGAATTCCGGTCTCCC
DNA 2: TGGTGGCTACGACGGGATT
B2: AAUGAGC (DNA:RNA)
RNA: B1 RNA with G26A, A27U, C28G, G29A, A30G
DNA 1: CAATCTGAATTCCGGTCTCCC
DNA 2: TGGTGGCTACGACGGGATT
B3: CAUUAUA (DNA:RNA)
RNA: GGGAGACCGGAAUUCAGAUUGUCCCAUUAUAUUAAAUCCCGUCGUAGCCACCA
DNA 1: CAATCTGAATTCCGGTCTCCC
DNA 2: TGGTGGCTACGACGGGATT
B4: GCCUUCG (DNA:RNA)
RNA: B3 RNA with C25G, A26C, U27C, A29U, U30C, A31G
DNA 1: CAATCTGAATTCCGGTCTCCC
DNA 2: TGGTGGCTACGACGGGATT
B5: CUCCGAC (DNA:RNA)
RNA: B1 RNA with A25C, G26U, A27C
DNA 1: CAATCTGAATTCCGGTCTCCC
DNA 2: TGGTGGCTACGACGGGATT
B6: UUAUUAG (DNA:RNA)
RNA: B1 RNA with A25U, G26U, C28U, G29U, C31G
DNA 1: CAATCTGAATTCCGGTCTCCC
DNA 2: TGGTGGCTACGACGGGATT
B7: CUCUCGU (DNA:RNA)
RNA: B3 RNA with A26U, U27C, A29C, U30G, A31U
DNA 1: CAATCTGAATTCCGGTCTCCC
DNA 2: TGGTGGCTACGACGGGATT
B8: AUCGGGA (DNA:RNA)
RNA: B1 RNA with G26U, A27C, C28G, A30G, C31A
DNA 1: CAATCTGAATTCCGGTCTCCC
DNA 2: TGGTGGCTACGACGGGATT
B9: ACCUUAG (DNA:RNA)
RNA: B1 RNA with G26C, A27C, C28U, G29U, C31G
DNA 1: CAATCTGAATTCCGGTCTCCC
DNA 2: TGGTGGCTACGACGGGATT
B10: CUCACUU (DNA:RNA)
RNA: B3 RNA with A26U, U27C, U28A, A29C, A31U
DNA 1: CAATCTGAATTCCGGTCTCCC
DNA 2: TGGTGGCTACGACGGGATT
B11: UAGCUAG (DNA:RNA)
RNA: B1 RNA with A25U, G26A, A27G, G29U, C31G
DNA 1: CAATCTGAATTCCGGTCTCCC
DNA 2: TGGTGGCTACGACGGGATT
B12: CGGGUGG (DNA:RNA)
RNA: B1 RNA with A25C, A27G, C28G, G29U, A30G, C31G
DNA 1: CAATCTGAATTCCGGTCTCCC
DNA 2: TGGTGGCTACGACGGGATT
B13: UUAGAGG (DNA:RNA)
RNA: B1 RNA with A25U, G26U, C28G, G29A, A30G, C31G
DNA 1: CAATCTGAATTCCGGTCTCCC
DNA 2: TGGTGGCTACGACGGGATT
B14: UCAUAUG (DNA:RNA)
RNA: B3 RNA with C25U, A26C, U27A, A31G
DNA 1: CAATCTGAATTCCGGTCTCCC
DNA 2: TGGTGGCTACGACGGGATT
B15: UGGCGGG (DNA:RNA)
RNA: B1 RNA with A25U, A27G, A30G, C31G
DNA 1: CAATCTGAATTCCGGTCTCCC
DNA 2: TGGTGGCTACGACGGGATT
B16: CGUGCCC (DNA:RNA)
RNA: B1 RNA with A25C, A27U, C28G, G29C, A30C
DNA 1: CAATCTGAATTCCGGTCTCCC
DNA 2: TGGTGGCTACGACGGGATT
B17: UACCGAA (DNA:RNA)
RNA: B1 RNA with A25U, G26A, A27C, C31A
DNA 1: CAATCTGAATTCCGGTCTCCC
DNA 2: TGGTGGCTACGACGGGATT
B18: AGUUUCA (DNA:RNA)
RNA: B3 RNA with C25A, A26G, A29U, U30C
DNA 1: CAATCTGAATTCCGGTCTCCC
DNA 2: TGGTGGCTACGACGGGATT
B19: UCACAAC (DNA:RNA)
RNA: B1 RNA with A25U, G26C, G29A
DNA 1: CAATCTGAATTCCGGTCTCCC
DNA 2: TGGTGGCTACGACGGGATT
B20: AAGGCGC (DNA:RNA)
RNA: B1 RNA with G26A, A27G, C28G, G29C, A30G
DNA 1: CAATCTGAATTCCGGTCTCCC
DNA 2: TGGTGGCTACGACGGGATT
B21: UGAAGUA (DNA:RNA)
RNA: B1 RNA with A25U, C28A, A30U, C31A
DNA 1: CAATCTGAATTCCGGTCTCCC
DNA 2: TGGTGGCTACGACGGGATT
B22: GCAGGGG (DNA:RNA)
RNA: B1 RNA with A25G, G26C, C28G, A30G, C31G
DNA 1: CAATCTGAATTCCGGTCTCCC
DNA 2: TGGTGGCTACGACGGGATT
B23: UUGUUGG (DNA:RNA)
RNA: B3 RNA with C25U, A26U, U27G, A29U, U30G, A31G
DNA 1: CAATCTGAATTCCGGTCTCCC
DNA 2: TGGTGGCTACGACGGGATT
B24: UGGUGGA (DNA:RNA)
RNA: B1 RNA with A25U, A27G, C28U, A30G, C31A
DNA 1: CAATCTGAATTCCGGTCTCCC
DNA 2: TGGTGGCTACGACGGGATT
B25: UAACGGC (DNA:RNA)
RNA: B1 RNA with A25U, G26A, A30G
DNA 1: CAATCTGAATTCCGGTCTCCC
DNA 2: TGGTGGCTACGACGGGATT
B26: GGUAGGU (DNA:RNA)
RNA: B1 RNA with A25G, A27U, C28A, A30G, C31U
DNA 1: CAATCTGAATTCCGGTCTCCC
DNA 2: TGGTGGCTACGACGGGATT
B27: CUGCAAC (DNA:RNA)
RNA: B1 RNA with A25C, G26U, A27G, G29A
DNA 1: CAATCTGAATTCCGGTCTCCC
DNA 2: TGGTGGCTACGACGGGATT
B28: AUAUAUU (DNA:RNA)
RNA: B3 RNA with C25A, A26U, U27A, A31U
DNA 1: CAATCTGAATTCCGGTCTCCC
DNA 2: TGGTGGCTACGACGGGATT
B29: UCCGCCG (DNA:RNA)
RNA: GGGAGACCGGAAUUCAGAUUGUCCUCCGCCGUUAAAUCCCGUCGUAGCCACCA
DNA 1: CAATCTGAATTCCGGTCTCCC
DNA 2: TGGTGGCTACGACGGGATT
B30: UUAUCUU (DNA:RNA)
RNA: B3 RNA with C25U, A26U, U27A, A29C, A31U
DNA 1: CAATCTGAATTCCGGTCTCCC
DNA 2: TGGTGGCTACGACGGGATT
B31: GCAUCGG (DNA:RNA)
RNA: B29 RNA with U25G, C27A, G28U, C30G
DNA 1: CAATCTGAATTCCGGTCTCCC
DNA 2: TGGTGGCTACGACGGGATT

Positions count from the first letter of the chain named. This is one part of the list.

In the test the target is T1, RBFOX1 RRM RbFoxmut (Fox-RRM*). Nature of the test: EMSA; HiTS-Eq, 1 nM pool, 10 min; buffer printed only for the single-RNA assays: 10 mM Tris pH 7.5, 150 mM NaCl, 3.4 mM EDTA, 0.001% NP-40, 30 C. To be noted: tags: His6 N-terminal (pET28a); label: 5' 32P. The method, boiled down: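 Relative association constants, normalised to the cognate motif, were derived by comparing read counts of each RNA species with those of the control reaction. The RNA sequenced was the free fraction, separated by 8% native PAGE after a 10 min equilibration in 50 µL of 1 nM 5′-radiolabelled RNA (7 randomized nucleotides) with increasing concentrations of purified wild-type or mutant RbFox RRM.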
As to B1, the binding signal is 0.0481 KA relative to UGCAUGU.
The result for B2 reads 0.113 KA relative to UGCAUGU.
The result for B3 reads 0.164 KA relative to UGCAUGU.
Take B4: the binding signal is 0.2 KA relative to UGCAUGU.
The result for B5 reads 0.0798 KA relative to UGCAUGU.
The result for B6 reads 0.113 KA relative to UGCAUGU; that for B7, 0.131 KA relative to UGCAUGU; that for B8, 0.0835 KA relative to UGCAUGU.
The result for B9 reads 0.124 KA relative to UGCAUGU; that for B10, 0.11 KA relative to UGCAUGU; that for B11, 0.1 KA relative to UGCAUGU.
In the case of B12, the binding signal was 0.0864 KA relative to UGCAUGU.
The result for B13 reads 0.0903 KA relative to UGCAUGU; that for B14, 0.136 KA relative to UGCAUGU.
The result for B15 reads 0.142 KA relative to UGCAUGU; that for B16, 0.0751 KA relative to UGCAUGU.
Regarding B17, the binding signal is 0.0931 KA relative to UGCAUGU.
The result for B18 reads 0.134 KA relative to UGCAUGU.
The result for B19 reads 0.0452 KA relative to UGCAUGU; that for B20, 0.0876 KA relative to UGCAUGU; that for B21, 0.105 KA relative to UGCAUGU.
The result for B22 reads 0.0734 KA relative to UGCAUGU; that for B23, 0.117 KA relative to UGCAUGU.
Turning to B24, the binding signal was 0.122 KA relative to UGCAUGU.
For B25, the binding signal is 0.0603 KA relative to UGCAUGU.
The result for B26 reads 0.0873 KA relative to UGCAUGU.
Regarding B27, the binding signal is 0.0782 KA relative to UGCAUGU.
Regarding B28, the binding signal is 0.119 KA relative to UGCAUGU.
The result for B29 reads 0.0854 KA relative to UGCAUGU; that for B30, 0.0791 KA relative to UGCAUGU.
The result for B31 reads 0.454 KA relative to UGCAUGU.

These data come from article PMC9911399, “Two distinct binding modes provide the RNA-binding protein RbFox with extraordinary sequence specificity”.
